# Screen size: about 48,000 compounds; about 120 (0.25%) were called active. Not shown: some 4% with an inconclusive outcome. Calls come from the whole dose curve; as a rule, active = well fitted activation curve with a large enough effect; inconclusive = small, poorly fitted or top-dose-only effect, or another doubt; inactive = no such curve, though single readings can be large or run the other way. The list shows a part of the results.
# Assay: Primary qHTS for Identification of Small Molecule Activators of Huntingtin-Antisense Promoter Activity; note: nearly all actives have a fitted effect of over 55% in size
# Conditions: HEK293 HTT-AS promoter firefly luciferase reporter, 24 h; series mostly up to 57.5 µM; activity change, positive = activation: at the top concentration
# Procedure, shortened: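 HEK293 luciferase promoter-reporter cells (2,500/well) plated 24 h, then compounds added at up to 57.5 uM final for 24 h at 37 °C. Firefly luminescence by Dual-Glo, normalized to vehicle (0%) and zero RLU (-100%).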
# Potency is the fitted concentration of half-maximal effect.
SMILES,"activity change, positive = activation",Potency
O=C(CCC(=O)OCC(=O)c1ccc(Cl)cc1)Nc1ccc(Oc2ccccc2)cc1,inactive: -8.31%,
CCCn1cc(S(=O)(=O)c2cc(C)ccc2C)c(=O)c2cc(F)c(N3CCOCC3)cc21,inactive: -14.6%,
CCc1ccc2occ(CC(=O)Nc3c(C(=O)Nc4ccc(C)cc4)oc4ccccc34)c2c1,inactive: 1.57%,
COC(=O)c1c(SCC(=O)Nc2cc(C)cc(C)c2)[nH]c2ccccc2c1=O,inactive: -25.7%,
COc1cccc(C2c3c(oc4ccc(C)cc4c3=O)C(=O)N2CCCN2CCOCC2)c1OC (configuration not stated),inactive: -19.7%,
O=C(Nc1cccc(NC(=O)c2ccc(Br)o2)c1)c1ccccc1,inactive: 7.17%,
CC1=C(CC(=O)O)c2cc(F)ccc2/C1=C\c1ccc(S(C)=O)cc1 (configuration not stated),inactive: -4.08%,
Cc1ccccc1-n1cc(-c2ccccc2)nc1SCC(=O)Nc1ccc(F)cc1,inactive: -20.5%,
COc1ccc(-n2c(=O)c3c4c(sc3n(Cc3cc(C)ccc3C)c2=O)CN(C(C)=O)CC4)c(OC)c1,inactive: -46.7%,
CCCn1c2ccccc2c2cnn(CC(=O)N3CCC(C(=O)OCC)CC3)c(=O)c21,inactive: -9.88%,
Cc1ccc(CNc2nc3ccccc3n3c(C)nnc23)cc1,inactive: -11.3%,
Cc1ccc(Sc2c(C)nn(C(=O)COc3ccc(F)cc3)c2C)cc1,inactive: 4.81%,
Cc1onc(-c2ccccc2)c1-c1ccc(S(N)(=O)=O)cc1,inactive: -13.5%,
O=C(NCCN1CCN(c2ccccc2)CC1)Nc1ccccc1Br,inactive: -8.12%,
Cc1noc(Cn2c(=O)c3ccccc3n(CC(=O)Nc3cccc(Cl)c3C)c2=O)n1,inactive: -13.2%,
COc1ccc(CCN(C)CCCC(C#N)(c2ccc(OC)c(OC)c2)C(C)C)cc1OC (configuration not stated),inactive,
CC(=O)N1CCCc2cc(S(=O)(=O)N(C)CC(=O)Nc3ccc(C)cc3C)ccc21,inactive: 29.1%,
CC[N+]1(CC)CCC(=C(c2ccccc2)c2ccccc2)C1C (configuration not stated),inactive: -7.3%,
N#Cc1nc(/C=C/c2ccc(F)cc2)oc1N1CCN(c2ccccc2)CC1,inactive: -8.87%,
COc1ccc(Cn2c(CNS(=O)(=O)c3ccc4c(c3)CCCC4)nc3cccnc32)cc1,inactive: -20.7%,
O=C(c1cnc(N2CCCCC2)c2ccccc12)N1CCN(c2ccccc2F)CC1,inactive: -24.9%,
CCCSc1oc(-c2cccs2)nc1S(=O)(=O)c1ccc(Cl)cc1,inactive: -12.3%,
Cc1ccc2c(c1)c1c(c(=O)n(Cc3ccccc3)c(=O)n1Cc1cccc(C(F)(F)F)c1)n2C,inactive: -11.7%,
c1csc(C2=NC(c3ccncc3)=Nc3ccccc3N2)c1,inactive: -11.8%,
O=C(CSC1=Nc2ccccc2N=C(c2ccc(F)cc2)C1)NCc1ccccc1,inactive: -27.7%,

SMILES,"activity change, positive = activation",Potency
CC(=O)N1CCc2cc(CNS(=O)(=O)c3ccc(Br)s3)ccc21,inactive: -4.72%,
CCOc1ccc(C(=O)NCCc2sc3nc(-c4ccc(Cl)cc4)nn3c2C)cc1OCC,inactive: -15.3%,
CC1CCCN(Cc2cn3c(-c4cccc(Br)c4)nnc3s2)C1 (configuration not stated),inactive: -9.37%,
O=C(NCCc1ccc(Cl)cc1)c1ccc(Cn2c(=O)c3cccn3c3cccnc32)cc1,inactive: -24.9%,
CCCc1cc(=O)[nH]c(=S)[nH]1,inactive,
Cc1ccc(N2CC(NC(=O)c3ccc(S(=O)(=O)N4CCOCC4)cc3)CC2=O)cc1C (configuration not stated),inactive: -15.4%,
Cc1cccc(CNC(=O)C2CCN(c3nnc(-n4c(C)ccc4C)s3)CC2)c1,inactive: -1.43%,
Cc1cccc(-c2noc(CN(C(=O)c3ccccc3Cl)C(C)C)n2)c1,inactive: -20.4%,
COc1ccc(CCNC(=O)CCCn2c(=O)c3ccccc3n(Cc3ccc(F)cc3Cl)c2=O)cc1OC,inactive: -5.37%,
COc1ccccc1NC(=O)c1c(NCc2ccc(C)o2)sc2c1CCC(C)C2 (configuration not stated),inactive: -19.2%,
COCCc1nn2c(=O)cc(COC(=O)COc3ccc(F)cc3)nc2s1,inactive: -10.4%,
COc1ccc(-c2cn3c(n2)sc2cc(C(=O)NCCCN4CCCCCC4)ccc23)cc1,inactive: -3.19%,
CCCOC(=O)c1c(NC(=O)C2c3ccccc3Oc3ccccc32)sc2c1CCC(C)C2 (configuration not stated),"inactive: -13.2% [at 11.5 µM, percent change from vehicle, -100% = no light]",
CC(C(=O)Nc1cc(C(F)(F)F)ccc1Cl)n1nnc2sc3c(c2c1=O)CCCC3 (configuration not stated),inactive: -27%,
COc1cccc(CNC(=O)c2nn(-c3ccccc3Cl)nc2CO)c1,inactive: -38.3%,
Cc1ccccc1C(=O)NCc1nc2cccnc2n1Cc1ccccc1,inactive: -8.17%,
Cc1ccc2oc(-c3ccc(C)c(NC(=O)c4ccc(C(C)(C)C)cc4)c3)nc2c1,inactive: 0.34%,
COc1ccc(S(=O)(=O)c2c(Nc3ccc(F)cc3)sc(C(=O)c3ccc4c(c3)OCO4)c2N)cc1,inactive: -20.7%,
CCN1CCN(C(c2ccccc2)c2sc3nc(-c4ccco4)nn3c2O)CC1 (configuration not stated),inactive: -5.2%,
CCOc1ccccc1C(=O)Oc1c(Sc2ccccc2)c(C)nn1C(C)(C)C,inactive: -18.5%,
CCOC(=O)CNC(=O)N1CCc2cc(S(=O)(=O)N3CCC(C)CC3)ccc21,inactive: -10.2%,
CCOC(=O)c1ccc(N2C(=O)c3n[nH]c(C)c3C2c2ccc(C(C)(C)C)cc2)cc1 (configuration not stated),inactive: -6.69%,
CNC(=O)C1CCC(Cn2c(=O)[nH]c3ccsc3c2=O)CC1 (configuration not stated),inactive: -3.31%,
Cc1ccc(NS(=O)(=O)c2ccc3c(c2)NC(=O)CCS3)cc1C,inactive: -38.4%,
Cc1cccc(OC(=O)c2cc(-c3ccc4c(c3)OCCO4)on2)c1,inactive: 18.9%,

SMILES,"activity change, positive = activation",Potency
Cc1ccccc1-n1c(/C=C/c2c(C)n(C)c3ccccc23)nc2ccccc2c1=O,inactive: -16.8%,
CC(C)(C)OC(=O)N1CCC(c2c(C(=O)N3CCN(c4ncccn4)CC3)cnn2-c2ccccc2)CC1,inactive: 2.91%,
CCOC(=O)c1cccc(NC(=O)c2cc(CN3CCOCC3)on2)c1,inactive: 10.3%,
CSc1ccc(CNc2ncc(-c3ccccc3)n2C)cc1,inactive: -1.92%,
CCN(CC)S(=O)(=O)c1ccc(C(=O)Nc2nc3c(Cl)cc(Cl)cc3s2)cc1,inactive: -43.9%,
CCOC(=O)c1ccc(NC(=O)COCc2cc(-c3ccc4c(c3)OCO4)on2)cc1,inactive: 5.98%,
CCC(O)c1cc2c(cc1NC(=O)c1cccc(Br)c1)OCCO2 (configuration not stated),inactive: -9.59%,
Cc1nc2ccccc2n1CCc1nc2c3ccccc3nc(SCC(=O)Nc3ccc(Br)cc3F)n2n1,inactive: 0.189%,
O=C(O)[C@H](Cc1c[nH]c2ccccc12)N1C(=O)c2ccccc2C1=O,"inactive: -13.5% [at 116 µM, percent change from vehicle, -100% = no light]",
CC(C)C12CN3CC(C(C)C)(CN(C1)C3c1ccc(Cl)cc1)C2=O (configuration not stated),inactive: -11.9%,
COc1ccc(-c2nc3ccccc3o2)cc1NC(=O)C(C)Oc1ccc(Cl)cc1Cl (configuration not stated),inactive: -5.44%,
CN1CCN(c2oc(-c3ccc(COc4ccc(Cl)cc4)o3)nc2C#N)CC1,inactive: -29%,
N#Cc1nc(-c2ccc(COc3ccccc3)o2)oc1NCc1ccccc1,inactive: -21.6%,
CN(C)CCCN(C(=O)c1cccs1)c1nc2ccc(F)cc2s1,inactive: 1.07%,
Cc1ccc(CNC(=O)CSc2nc(=O)[nH]c3c2CCCC3)cc1,inactive: -2.12%,
O=C(CN1C(=O)CCc2cc(S(=O)(=O)N3CCOCC3)ccc21)Nc1cccc(Cl)c1,inactive: -17.7%,
CCCSc1ncc(Cl)c(C(=O)N(Cc2ccc(N(C)C)cc2)C2CCS(=O)(=O)C2)n1 (configuration not stated),inactive: -30.7%,
COc1ccc(NC(=O)Cn2cnc3sc(C)c(S(=O)(=O)N4CCN(C)CC4)c3c2=O)cc1Cl,inactive: -0.987%,
Cc1ccc(-n2ncc(C(=O)Nc3ccc4c(c3)OCCO4)c2C2CCN(C(=O)OC(C)(C)C)CC2)cc1,inactive: -62.5%,
COc1ccc(Br)cc1CNC(=O)CSc1cc(=O)n(C)c2ccccc12,inactive: -15.1%,
Cc1ccccc1-c1noc(-c2cc3ccccc3oc2=O)n1,,active: 2.51 µM
Cc1ccc(-c2nc(CS(=O)(=O)CC(=O)N3CCN(c4cccc(C)c4C)CC3)c(C)o2)cc1,inactive: -22%,
CCCc1ccc(OC(C)C(=O)Nc2sc3c(c2C(=O)OC)CCCCC3)cc1 (configuration not stated),inactive: -12.8%,
CC1CCN(S(=O)(=O)c2ccc3c(c2)oc(=O)n3CC(=O)NC(C)c2ccccc2)CC1 (configuration not stated),inactive: -34.5%,
CSc1nc(Nc2cccc(C)c2)c(C#N)c(-c2ccccc2)n1,inactive: -3.19%,

SMILES,"activity change, positive = activation",Potency
CNc1c(NC(=O)c2cc(OC)cc(OC)c2)c(=O)oc2ccccc12,inactive: -1.32%,
CCOC(=O)c1cnc2ccc(OC)cc2c1NCCc1ccc(OC)c(OC)c1,inactive: -39.7%,
Cn1c(SCC(=O)N2CCCc3ccccc32)ncc(C(=O)Nc2ccc(F)cc2)c1=O,inactive: 4.92%,
CCCCNC(=O)c1nn(-c2ccc(C)cc2)c(=O)c2c1c1ccccc1n2C,inactive: -4.77%,
Cc1cccc(CNC(=O)c2cccc(NC(=O)N3CCSc4ncccc43)c2)c1,inactive: -13.6%,
O=C(O)CC(O)C(=O)O (configuration not stated),inactive: -3.02%,
COc1ccc2c(c1)c(=O)c(S(=O)(=O)c1ccc(Cl)cc1)cn2C,inactive: 0%,
Cc1ccccc1CNC(=O)C1CCN(c2nnc(-n3c(C)ccc3C)s2)CC1,inactive: 1.17%,
Cc1cccc(NC(=O)N2CCC(CN3CCC(C)CC3)CC2)c1C,inactive: -4.32%,
CCOC(=O)c1c(C)[nH]c(C)c1S(=O)(=O)N1CCCC(C(=O)Nc2ccccc2OCC)C1 (configuration not stated),inactive: -16.5%,
CCc1cccc(CC)c1NC(=O)C(CC)n1nc(C)n2c(cc3cc(C)ccc32)c1=O (configuration not stated),inactive: -3.85%,
Cc1ccc2c(c1)C(c1ccccc1)N(C(=O)c1ccccc1F)CC(=O)N2 (configuration not stated),inactive: -19.9%,
CCOC(=O)c1cccc(NC(=O)c2cc3cc4ccc(C)cc4nc3o2)c1,inactive: -2.78%,
CCCn1c(SCc2nc(-c3cc(OC)ccc3OC)no2)nnc1-c1ccc(Cl)cc1,inactive: -19.1%,
Cc1ccc(NC(=O)CCNS(=O)(=O)c2ccc(Br)s2)cc1,inactive: -11.4%,
O=C(NCCS(=O)(=O)N1CCN(c2ccccc2F)CC1)C(c1ccccc1)c1ccccc1,inactive: 12.3%,
CNCCCC1c2ccccc2C=Cc2ccccc21,inactive: -16.7%,
O=C(Nc1ccccc1Cl)c1cc(S(=O)(=O)N2CCC3(CC2)OCCO3)ccc1F,inactive: -24.4%,
Cc1ccc(-c2nc(NC(=O)CSc3ncnc4sc5c(c34)CCC(C)C5)ns2)cc1 (configuration not stated),inactive: -1.63%,
CCOc1ccc(N(CC)S(=O)(=O)N2CCCC(C(=O)Nc3ccc(OC)c(OC)c3)C2)cc1 (configuration not stated),inactive: -31.1%,
CCn1cc2nc(SCc3ccccc3Cl)n(CCc3ccccc3)c(=O)c2n1,inactive: -22.8%,
CCOc1ccc(-n2ccn3c(CC(C)CC(=O)O)nnc3c2=O)cc1 (configuration not stated),inactive: -6.69%,
